Reference: US6022851A, “Lantibiotic related to actagardine, and processes for the preparation and use thereof” (priority 1997, dated 2000)

Tested on: E. faeccium M78L
Assay type: cell-based
Conditions: incubation time 24 h
Source text: Tables 4 to 6 show the in-vitro antibacterial activity (MIC values[μg/ml]) of the actagardine (Acta) and of the compounds according to the invention.

With “di-Boc-Lys(0)-actagardine [Boc--Lys--Acta]” the MIC values was 10 µg/mL.
